Reference: PubChem BioAssay AID1645882 (National Center for Advancing Translational Sciences (NCATS), 2021)
Screen size: about 16,000 compounds; about 120 (0.75%) were called active. Another 4% or so got no clear call; they are omitted. Calls come from the whole dose curve; as a rule, active = well fitted inhibition curve with a large enough effect; inconclusive = small, poorly fitted or top-dose-only effect; inactive = no such curve, though single readings can be large or run the other way. The list shows a part of the results.

Each compound was assayed against Rap guanine nucleotide exchange factor 3 (Homo sapiens) (UniProt O95398) (assay: Validation qHTS for antagonist of cAMP-regulated guanine nucleotide exchange factor 3 (EPAC1)). Details: EPAC1 Rap1B-BODIPY-GDP exchange, fluorescence; series mostly up to 150 µM; activity change, negative = inhibition: at the top concentration.
Chain of UniProt O95398 (O95398 whole entry, looked up): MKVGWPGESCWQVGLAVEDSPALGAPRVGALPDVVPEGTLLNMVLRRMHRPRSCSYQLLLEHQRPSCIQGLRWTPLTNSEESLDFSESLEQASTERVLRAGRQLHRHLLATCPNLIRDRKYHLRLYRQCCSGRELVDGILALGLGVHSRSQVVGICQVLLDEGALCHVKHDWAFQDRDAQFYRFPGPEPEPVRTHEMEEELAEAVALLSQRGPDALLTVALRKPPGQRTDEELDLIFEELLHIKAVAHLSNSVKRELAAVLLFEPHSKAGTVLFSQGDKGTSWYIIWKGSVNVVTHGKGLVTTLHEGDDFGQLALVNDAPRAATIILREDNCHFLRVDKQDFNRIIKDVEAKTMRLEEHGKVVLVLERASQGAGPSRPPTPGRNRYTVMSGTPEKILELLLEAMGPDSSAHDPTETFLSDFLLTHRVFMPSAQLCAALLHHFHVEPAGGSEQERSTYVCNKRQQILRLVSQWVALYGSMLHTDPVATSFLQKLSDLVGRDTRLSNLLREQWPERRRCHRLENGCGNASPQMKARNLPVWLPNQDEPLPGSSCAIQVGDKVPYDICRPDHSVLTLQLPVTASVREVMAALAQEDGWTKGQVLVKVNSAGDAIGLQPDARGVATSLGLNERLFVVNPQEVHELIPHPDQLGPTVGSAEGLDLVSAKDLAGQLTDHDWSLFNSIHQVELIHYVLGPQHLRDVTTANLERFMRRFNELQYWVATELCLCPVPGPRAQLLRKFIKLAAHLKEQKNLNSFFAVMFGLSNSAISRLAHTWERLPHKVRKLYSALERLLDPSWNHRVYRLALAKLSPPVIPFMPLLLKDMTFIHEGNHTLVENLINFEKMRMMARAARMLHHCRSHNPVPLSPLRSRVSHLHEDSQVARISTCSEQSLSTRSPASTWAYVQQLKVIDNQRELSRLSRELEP
Summary of the method: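 Nucleotide exchange followed as fluorescence loss when BODIPY-GDP leaves Rap1B (480 nm excitation, 540 nm emission), read at 5 min intervals over 30 min. Reaction: 100 nM EPAC1, 250 nM RAP1B-BODIPY-GDP, 50 uM GDP; ATA and DMSO define normalization.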
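Note: plate controls were DMSO for no effect and ATA control for full effect; nearly all actives have a fitted effect of over 75% in size.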

Activity change, negative = inhibition, inactive:
O=C1c2ccccc2-n2c1nc1ccccc1c2=O 19.3%, O=C(NCc1ccncc1)c1cnn(-c2ncc3c(n2)-c2ccccc2CC3)c1C1CC1 12.6%, CO[C@@H]1[C@@H](OC(N)=O)[C@@H](O)[C@H](Oc2ccc3c(O)c(NC(=O)c4ccc(O)c(CC=C(C)C)c4)c(=O)oc3c2C)OC1(C)C 15.4% [at 75.8 µM], O=C(NCO)c1cccnc1 3.68%, NC1=NCCCC1 -1.58%, O=C(c1ccncc1)N1CCC2(CCCN(c3ccccc3)C2)CC1 6.93%, O=c1c(-c2ccccc2)nc2cnc(Oc3ccccc3)nc2n1C1CC1 2.63%, O=c1cnc2cnc(Nc3ccccc3)nc2n1C[C@H]1CCCO1 6.54%, CCS(=O)(=O)N(C)[C@@H]1c2cc(C#N)ccc2OC(C)(C)[C@H]1O, Brc1c(Br)c(Br)c2n[nH]nc2c1Br -7.12% [at 75.8 µM], Cc1ccc2[nH]nc(C(=O)N3CCOc4ccc(CN5CCc6sccc6C5)cc4C3)c2c1 9.32%, CN(C)C(=N)N=C(N)N, CN1CCC(=O)N([C@H](CN=[N+]=[N-])c2ccccc2)CC1 11.1%, O=S(O)CNc1ccc(S(=O)(=O)c2ccc(NCS(=O)O)cc2)cc1 -11.4%, N#Cc1cccc(-c2ccc3ncnc(NCc4cccnc4)c3c2)c1 15.9%, CC(C)[C@H](N)C(=O)OCCOCn1cnc2c(=O)[nH]c(N)nc21 28.1%, CC(C)(O)C#Cc1ccc(CN2CCc3nnc(CCNC(=O)c4ccco4)n3CC2)cc1 -12.6%, O=C(CCN1Cc2ccccc2OC(c2ccccc2)C1)N[C@@H]1CS(=O)(=O)C[C@H]1O (some centres undefined) 9.26%, CSc1nc(C(=O)N2CCc3c(cnc(C)c3CNC(=O)c3ccc4c(c3)OCO4)C2)cs1 5.75%, O=C(O)CC[C@@H](C(=O)O)N1C(=O)c2ccccc2C1=O -4.61% [at 75.8 µM], CCN(CC)C1CCN(C(=O)c2cnn(-c3nccc(-c4ccccc4OC)n3)c2-c2ccco2)C1 (centres undefined) 20.3%, CCOC(=O)C[C@H]1c2cc(F)ccc2S(=O)(=O)N1c1cccc(OC)c1 12.5%, CC(=O)Oc1cccc(O)c1 19.3%, Cc1occc1C(=O)Nc1cccc(-c2nc(CNC(=O)c3ccc(N4CCCCC4)cc3)c(C)o2)c1 -4.82%, CCOC(=O)c1c[nH]c2nc(C)ccc2c1=O 24.4%, O=C1CCNCCN1[C@H](CO)c1ccccc1 2.58%, COCC(=O)Nc1cc(C(=O)N2CCCC(c3ccccc3)CC2)c2c(c1)nc(-c1ccncc1)n2C (centres undefined) -8.48%, Cc1noc(C)c1C(=O)N1CCC[C@@]2(CCN(Cc3nccs3)C2)C1 17.4%, CSC(N)=NCCCC(N)C(=O)O (centres undefined) 6.25%, CC(C)C(C)/C=C/C(C)C1CCC2C3=CCC4CC(=O)CC[C@@]4(C)C3CC[C@]21C (some centres undefined) 0.631%, CCCc1c(OCCCCc2nn[nH]n2)ccc(C(C)=O)c1O, COc1cccc(CN2Cc3cccc4c3[C@H](C=CC4)CC2=O)c1 -0.201%, COc1ccc(CN2CCOc3ccc(C(O)c4cccnc4)cc3C2)cc1 (centres undefined) 20.8%, Cc1cnc2ccccc2c1C 21.8%, CCCCCCCN1CCC(=O)N([C@H](CO)Cc2ccccc2)CC1 -4.35%, CCOc1ccc(N=C(C)Nc2ccc(OCC)cc2)cc1 10.7%, FC(F)(F)C(F)(F)C(F)(F)C(F)(F)C(F)(F)C(F)(F)C(F)(F)C(F)(F)Br 13.9%, CN1CCCC1c1cccnc1 (centres undefined) 10.4%, O=C(c1cnccn1)N1CCC2(CCN(Cc3cc(C(F)(F)F)cc(C(F)(F)F)c3)CC2)CC1 0.971%, CN1CCCC(n2nc(Cc3ccc(Cl)cc3)c3ccccc3c2=O)CC1 (centres undefined) 23.5%, CCCCCCCCN1[C@@H](CC(=O)OCC)c2ccc(C(F)(F)F)cc2S1(=O)=O -22.5%, Cc1ccc(C)c2c(C)ccnc12 20.6%, CC(C)[C@@H](COc1ccccc1)N1CCN(Cc2ccccc2)CCC1=O -0.103%, CC1=CC(=O)NS(=O)(=O)O1 9.17%, Nc1ncnc2c1ncn2[C@@H]1O[C@H](COP(=O)(O)OP(=O)(O)OP(=O)(O)OP(=O)(O)OC[C@@H]2O[C@H](n3cnc4c(N)ncnc43)[C@@H](O)[C@H]2O)[C@@H](O)[C@H]1O, COc1ccc(-n2c(CNC(=O)c3c(-c4ccccc4)noc3C)nnc2SC)cc1 18.5%, O=C(c1ccco1)N1CCC2(CC1)CCN(c1ncccn1)CC2 -6.5%, O=C(c1ccncc1)N1CCC[C@@]2(CCN(c3ncccn3)C2)C1 5.91%, COC(=O)c1cc(CNC(=O)c2ccncc2)cc(NC(=O)c2ccccc2Cl)c1 -25.5%, O=c1c(CCc2ccccc2)nc2cnc(N3CCNCC3)nc2n1-c1ccccc1 20.8%, CCCC(=O)Nc1ncnc2c1ncn2[C@@H]1O[C@@H]2COP(=O)(O)O[C@H]2[C@H]1OC(=O)CCC, COCCn1c(=O)c(-c2ccc(F)cc2)nc2cnc(Oc3cccc(Cl)c3)nc21 -10.8%, N#Cc1cccc(NC(=O)N2CC[C@@]3(CCCN(C(=O)c4ccncc4)C3)C2)c1 12.7%, O=C(c1ccncc1)N1CCC2(CCCN(c3ccccn3)C2)CC1 30.3%, COc1ccc2c(c1)-c1nc(-n3ncc(C(=O)NC(C)(C)CO)c3C3CC3)ncc1CC2 6.07%, CN(C)CCC[C@@]1(c2ccc(F)cc2)OCc2cc(C#N)ccc21, CC(=O)N[C@@H](CCC(=O)O)C(=O)O 0.0157%, COc1ccc(Oc2ncc3ncc(=O)n(Cc4ccc(F)cc4)c3n2)cc1 -2.74%, O=C[C@H](O)[C@@H](O)[C@@H](O)[C@H](O)CO 28.1%, CC(C)C[C@H](NC(=O)[C@H](CCc1ccccc1)NC(=O)CN1CCOCC1)C(=O)N[C@@H](Cc1ccccc1)C(=O)N[C@@H](CC(C)C)C(=O)[C@@]1(C)CO1 28.5%, COc1ccc(-n2c(=O)c(-c3cccs3)nc3cnc(N(C)C)nc32)cc1 19.2%, O=c1ccn([C@@H]2O[C@H](COP(=O)(O)O)[C@@H](O)[C@H]2O)c(=O)[nH]1 31%, CCNc1ncc2nc(CCc3ccccc3)c(=O)n(C)c2n1 10.4%, C=C1c2c(Cl)ccc(O)c2C(O)=C2C(=O)[C@]3(O)C(O)=C(C(N)=O)C(=O)[C@@H](N(C)C)[C@@H]3[C@@H](O)C12 (some centres undefined) 23.2% [at 39.6 µM], O=C(O[C@H]1CN2CCC1CC2)N1CCc2ccccc2[C@@H]1c1ccccc1 14.4%, NC(=O)N/N=C/c1ccc([N+](=O)[O-])o1, C=C1c2cccc(O)c2C(O)=C2C(=O)[C@]3(O)C(O)=C(C(N)=O)C(=O)C(N(C)C)C3C(O)C12 (some centres undefined) 9.9%, Cc1c(C(=O)NCCCN2CCCC2=O)cnn1-c1ncc2c(n1)-c1ccccc1CC2 4.56%, CCNc1ncc2nc(-c3ccc(OC)cc3)c(=O)n(-c3ccc(OC)cc3)c2n1 21.3%, NCC1CCC(C(=O)Oc2ccc(CCC(=O)O)cc2)CC1 (centres undefined) 10.1%, c1cncc(-c2cncnc2NC2CCNCC2)c1 12.5%, CCC1(C2CCN(C(=O)c3csc(C(C)=O)c3)CC2)NC(=O)N(CCc2scnc2C)C1=O (centres undefined) 12.8%, CNc1ccnc(-c2ccccc2OC)n1 5.01%, Nc1nc(-c2ccccc2)c(Br)c(=O)[nH]1 -4.32%, NC(N)=N/N=C\c1c(Cl)cccc1Cl -0.786%, CCCCCCCN1CCC(=O)N(CCO)CC1 4.79%, COc1cc(-c2cccnc2)cc2c1OCCN(C(=O)Cc1csc(C)n1)C2 0.913%, CCN(CC)CCOc1ccc(/C(=C(\Cl)c2ccccc2)c2ccccc2)cc1, O[C@@H](c1ccccc1)C1CCN(CCc2ccccc2)CC1 1.6%, CC(=O)OCOC(=O)CN(CC(=O)OCOC(C)=O)c1ccccc1OCCOc1ccccc1N(CC(=O)OCOC(C)=O)CC(=O)OCOC(C)=O -11.7%, COc1ccccc1CNc1ncncc1-c1ccccc1Cl -15%, O=[N+]([O-])c1ccc2nc(CO)[nH]c2c1 6.56%, Cc1ccc(C(=O)c2cc(O)c(O)c([N+](=O)[O-])c2)cc1 4.1%, O=Nc1c(-c2c(O)[nH]c3ccccc23)[nH]c2ccccc12, Cc1cnc(-n2ncc(C(=O)NCC3CCCN(C)C3)c2C)nc1-c1cccs1 (centres undefined) -8.87%, COc1ccc2[nH]cc(CCNC(C)=O)c2c1, Cc1cnc(CNc2ccnc(-c3ccc(C(=O)N(C)C)cc3)n2)cn1 12.8%, C=C(C)C1Cc2c(ccc(C(=O)O)c2O)O1 (centres undefined) 17.7%, CC(=O)OC1CCC23CC1(C)CCC2C(C)(C)CC3OC(C)=O (centres undefined) 3.64%, COc1ccc(OC)c2c(C)ccnc12 13.7%, O=C(NCC1(N2CCOCC2)CCCCC1)c1cnn(-c2nccc(-c3ccco3)n2)c1C1CC1 -4.77%, O=c1c(CCc2ccccc2)nc2cnc(N3CCOCC3)nc2n1CCc1ccccc1 9.74%, CC(C)(C)C1CCC(=O)N(CCSc2ccccc2)CC1 (centres undefined) -15.1%, Cc1nc2cnc(OCc3ccccc3)nc2n(C)c1=O 7.58%, CC1CC2C3CCC4=CC(=O)C=C[C@]4(C)[C@@]3(Cl)C(O)C[C@]2(C)C1(OC(=O)c1ccco1)C(=O)CCl (some centres undefined) 4.58%, CCCCCc1ccc(-c2cn(CCc3c[nH]c4ccccc34)nn2)cc1 -7.62%, COc1ccccc1-c1nc(NCCNC(C)=O)c2ccccc2n1 10.5%, CC1(C)CC[C@]2(C(=O)O)CC[C@@]3(C)C(=CCC4[C@@]5(C)CCC(O)[C@@](C)(CO)C5CC[C@@]43C)C2C1 (some centres undefined) 9.35%, CCOC(=O)[C@H](N)/C=C(\C)CP(=O)(O)O 12.4%, CN(C)c1ncnc2ccc(-c3cccc(C#N)c3)cc12 -5.09%, CO[C@H]1[C@H](NC(=O)c2ccsc2)c2ccccc2C12CCN(Cc1cc(Cl)ccc1O)CC2 7.57%, CC=CC1=C(C(=O)O)N2C(=O)[C@H](NC(=O)[C@H](N)c3ccc(O)cc3)[C@@H]2SC1 12.6%, CS(=O)(=O)N1CCC2(CCCN(C(=O)Nc3ccccc3)C2)CC1 15.9%, COCCC(=O)NCC1Cc2cc(Cl)cc(-c3ccc4[nH]ccc4c3)c2O1 (centres undefined) 9.37%
